{
  "source": "PubChem BioAssay AID651820",
  "about": "(National Center for Advancing Translational Sciences (NCATS), 2012)",
  "note": "Hit rate of the full screen: of about 340,000 compounds, about 12,000 (3.5%) were called active. Inconclusive results, whose numbers are uncertain, are shown with a selection of clear calls. Calls come from the whole dose curve; as a rule, active = well fitted inhibition curve with a large enough effect; inconclusive = small, poorly fitted or top-dose-only effect, or another doubt; inactive = no such curve, though single readings can be large or run the other way. No potency is given beside an inconclusive call; the fits are too rough. % is set by controls: 0 for no effect and ±100 for the full control effect; potency is the fitted concentration of half-maximal effect; tags give direction and shape of the fitted curve.",
  "data": [
    {"experiment": "qHTS Assay for Inhibitors of Hepatitis C Virus (HCV)", "details": "Huh7.5.1 HCVcc-Cre (HCVcc is cell-culture hepatitis C virus) infection, luciferase reporter, 44 h; activity change, negative = inhibition: at 41.8 µM (top of the series) unless noted", "outline": "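Seed cells (1,000/well) for 4 h; treat with compound and infect with HCVcc-Cre, moi about 0.5. Incubate 44 h, then detect luciferase activity.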", "values": [
      {"smiles": "Cc1cccc(C(=O)N2N=C(c3ccc(NS(C)(=O)=O)cc3)CC2c2cccs2)c1", "note": "(configuration not stated)", "Potency": "inconclusive [inhibitor, partial curve]"},
      {"smiles": "Cc1nnc(SCC(=O)N(CCC#N)c2ccc3c(c2)OCCO3)s1", "Potency": "inactive"},
      {"smiles": "CC[C@@]1(C(=O)OC)N[C@H](CN(C)C(=O)COc2ccccc2)[C@@H]2C(=O)N(Cc3ccccc3)C(=O)[C@@H]21", "Potency": "inconclusive [inhibitor, single point]"},
      {"smiles": "Cc1ccc(S(=O)(=O)N2CCOCC2)cc1NC(=O)COC(=O)c1cnccn1", "Potency": "inactive"},
      {"smiles": "Cc1cccc(S(=O)(=O)Nc2ccc(C)c3c2OC(C)(C)C3)c1", "Potency": "inconclusive [inhibitor, partial curve]"},
      {"smiles": "O=C(CN1CCN(C(=O)COc2cccc(F)c2)CC1)Nc1ccc(Cl)c(C(F)(F)F)c1", "Potency": "inconclusive [inhibitor, full curve]"},
      {"smiles": "COc1ccc(CN2CCN(C(=O)c3ccc4c(c3)CCC4)CC2)cc1OC", "Potency": "inconclusive [inhibitor, single point]"},
      {"smiles": "COc1ccc(CN2CC[C@H]3C=CC[C@@H](C(=O)Nc4ccc(Cl)c(C(F)(F)F)c4)[C@H]3C2=O)cc1OC", "Potency": "inconclusive [inhibitor, single point]"},
      {"smiles": "Cc1ccc(Cl)cc1NC(=O)COC(=O)CSc1ccccc1", "Potency": "inactive"},
      {"smiles": "Cc1ccc(NC2=NCCC2)cc1Cl", "Potency": "inactive"},
      {"smiles": "CCCn1c(=O)n(C)c(=O)c2c(SCc3cc(C(C)=O)ccc3OCC)nc(C3CC3)nc21", "Potency": "inconclusive [inhibitor, single point]"},
      {"smiles": "Cc1cccc(/C(N)=N/OC(=O)CCc2ccccc2)c1", "Potency": "inactive"},
      {"smiles": "COc1cc(C(F)(F)F)nc2ccc(C#CCOC(=O)Nc3ccccc3)cc12", "Potency": "inconclusive [inhibitor, single point]"},
      {"smiles": "COCCCn1c(SCc2ccc(OC)cc2)nc2cc(OC)c(OC)cc2c1=N", "Potency": "inconclusive [inhibitor, single point]"},
      {"smiles": "CN(C)S(=O)(=O)c1cc(NC(=O)CN2CCCc3ccccc32)ccc1Cl", "Potency": "inconclusive [inhibitor, partial curve]"},
      {"smiles": "Nc1[nH]ncc1-c1ccc(F)cc1", "Potency": "inactive"},
      {"smiles": "O=C(NCc1ccc(Cl)cc1Cl)C1CCN(S(=O)(=O)c2ccc3c(c2)OCCCO3)CC1", "Potency": "inconclusive [inhibitor, single point]"},
      {"smiles": "CC12CCC(C(=O)C1)C1(C)CCCC(=O)C21", "note": "(configuration not stated)", "Potency": "inactive"},
      {"smiles": "Cc1ccc(CN2CC(C(=O)NNC(=O)c3ccc(F)cc3)CC2=O)cc1", "note": "(configuration not stated)", "Potency": "inconclusive [inhibitor, partial curve, poor fit]"},
      {"smiles": "COc1ccccc1C(=O)N1CCC(N2CCN(c3ccccc3)CC2)CC1", "Potency": "inactive"},
      {"smiles": "Cc1ccc(N(CC(=O)NC2CCCCC2)C(=O)CNC(=O)c2ccco2)cc1F", "Potency": "inactive"},
      {"smiles": "Cc1ccccc1-n1nnnc1Sc1nnnn1-c1ccccc1", "Potency": "inconclusive [inhibitor, single point]"},
      {"smiles": "Cc1ccc(OCCCCCCN2CCNCC2)cc1", "Potency": "inconclusive [inhibitor, full curve]"},
      {"smiles": "COC(=O)C1=C(c2ccc(OC(F)(F)F)cc2)C[C@@H]2CC[C@H]1N2C(=O)NCC1CC1", "Potency": "inconclusive [inhibitor, partial curve]"},
      {"smiles": "COc1ccc([C@@H]2[C@@H]3C(=O)N(C(C)(C)C)C(=O)[C@@H]3[C@]3(CC(C)C)C(=O)N(c4cccc(Br)c4)C(=O)N23)cc1", "Potency": "inactive"},
      {"smiles": "Cc1ccc2sc(N(CCCN(C)C)C(=O)c3ccc(S(=O)(=O)N(C)Cc4ccccc4)cc3)nc2c1C", "Potency": "active: 3.55 µM"},
      {"smiles": "CCC1(C)Cc2c(sc3[nH]c(=O)[nH]c(=O)c23)CS1", "note": "(configuration not stated)", "Potency": "inactive"},
      {"smiles": "Cc1ccc(S(=O)(=O)Nc2ccc(=O)n(Cc3ccc(Cl)c(Cl)c3)c2)cc1", "Potency": "inactive"},
      {"smiles": "CCCNS(=O)(=O)c1ccc(Oc2ncc(C(F)(F)F)cc2Cl)cc1", "Potency": "inconclusive [inhibitor, partial curve, poor fit]"},
      {"smiles": "COc1ccc(/C=C/C(=O)NCCCN2CCCC2)cc1", "Potency": "inactive"},
      {"smiles": "O=C(NCCc1ccncc1)Nc1cccc(Cl)c1", "Potency": "inactive"},
      {"smiles": "Cc1ccc(C)c(NC(=O)c2cc(-c3cc(C)c(C)cc3O)n[nH]2)c1", "Potency": "inconclusive [inhibitor, partial curve, poor fit]"},
      {"smiles": "Cn1cc([N+](=O)[O-])c(C(=O)N/N=C/c2ccncc2)n1", "Potency": "inactive"},
      {"smiles": "Cc1ccccc1-c1ocnc1C(=O)Nc1ccccc1NC(=O)c1ccccn1", "Potency": "inconclusive [inhibitor, single point]"},
      {"smiles": "Cc1cc(Nc2ccc(C)c(Cl)c2)nc(N2CCOCC2)n1", "Potency": "inconclusive [inhibitor, partial curve, poor fit]"},
      {"smiles": "Cc1nn(Cc2c(F)c(F)c(F)c(F)c2F)c(C)c1NC(=O)c1c(-c2ccccc2)nn(-c2ccccc2)c1C", "Potency": "inconclusive [inhibitor, full curve]"},
      {"smiles": "CCOC(=O)c1ccccc1NS(=O)(=O)c1ccc(S(=O)(=O)N2CCCC2)cc1", "Potency": "inconclusive [inhibitor, full curve]"},
      {"smiles": "CCCn1nnc2sc3c(c2c1=O)CCC(C)C3", "note": "(configuration not stated)", "Potency": "inactive"},
      {"smiles": "O=C(CSc1ccc(F)cc1)NCC1(N2CCOCC2)CCCCC1", "Potency": "inconclusive [inhibitor, single point]"},
      {"smiles": "O=C(NNc1nc(N2CCCC2)nc(N2CCCC2)n1)c1ccccc1", "Potency": "inactive"},
      {"smiles": "C=CCOc1ccc(C2NC(=O)NC(C)=C2C(=O)OC)cc1", "note": "(configuration not stated)", "Potency": "inconclusive [inhibitor, full curve]"},
      {"smiles": "O=C(c1n[nH]c(=O)c2ccccc12)N1CCN(c2ccccc2)CC1", "Potency": "inactive"},
      {"smiles": "CCOC(=O)c1c(NC(=O)CN2C(=O)NC3(CCCCC3C)C2=O)sc(C(=O)N(C)C)c1C", "note": "(configuration not stated)", "Potency": "inconclusive [inhibitor, partial curve]"},
      {"smiles": "COc1cccc(NC(=O)Nc2ccc3c(c2)N(C)C(=O)CS3)c1", "Potency": "inconclusive [inhibitor, full curve]"},
      {"smiles": "COc1cc(C(=O)Nc2ccccc2-c2nnn(CC(N)=O)n2)cc(OC)c1OC", "Potency": "inconclusive [inhibitor, single point]"},
      {"smiles": "O=C(Nc1ccc(N2CCOCC2)c(Cl)c1)c1cccnc1Cl", "Potency": "inactive"},
      {"smiles": "CS(=O)(=O)N1CCC(C(=O)Nc2cc(Cl)c(Cl)cc2Cl)CC1", "Potency": "inactive"},
      {"smiles": "OC[C@@H]1[C@@H](c2ccccc2)C(c2ccc(F)cc2)=NN1c1ccccc1", "Potency": "inactive"},
      {"smiles": "Cc1noc(C)c1C(=O)Nc1nc(-c2cc(F)ccc2F)cs1", "activity change, negative = inhibition": "inconclusive: -34.8% [inhibitor]"},
      {"smiles": "COC(=O)C1=C(c2c(C)noc2C)C[C@@H]2CC[C@H]1N2C(=O)NCC1CC1", "Potency": "inactive"},
      {"smiles": "CC(C)NC(C)Cc1ccc(I)cc1", "note": "(configuration not stated)", "Potency": "inconclusive [inhibitor, partial curve]"},
      {"smiles": "Cc1ccc(S(=O)(=O)N2CCOCC2)cc1C(=O)N(Cc1nnc(-c2ccccc2Cl)o1)C1CC1", "Potency": "inconclusive [inhibitor, single point]"},
      {"smiles": "COc1ccc(N2CCN(CC(=O)Nc3nc(C)cs3)CC2)cc1", "Potency": "inactive"},
      {"smiles": "CC(=O)Nc1cc2c(c([N+](=O)[O-])c1C)C(C)(C)CC2(C)C", "Potency": "inactive"},
      {"smiles": "CN(CCNC(=O)Cn1c(=O)sc2ccccc21)Cc1ccccc1", "Potency": "inactive"},
      {"smiles": "Cn1c(=O)c2c(SCC(=O)NCC3CCCO3)nc(CC(C)(C)C)nc2n(C)c1=O", "note": "(configuration not stated)", "Potency": "inconclusive [inhibitor, partial curve, poor fit]"},
      {"smiles": "O=c1[nH]c(CSc2nc3ccccc3[nH]2)nc2c1cnn2-c1ccccc1", "Potency": "inconclusive [inhibitor, single point]"},
      {"smiles": "COc1ccc(CCNC(=O)c2ccc(CS(=O)(=O)c3ccc(Br)cc3)o2)cc1OC", "Potency": "inconclusive [inhibitor, full curve]"},
      {"smiles": "C=CCSc1nc(N)c2c3c(sc2n1)CN(C)CC3", "Potency": "inconclusive [inhibitor, single point]"},
      {"smiles": "CN1CCN(c2ccc(NC(=O)COc3ccc(Cl)cc3Cl)cc2)CC1", "Potency": "inconclusive [inhibitor, partial curve]"},
      {"smiles": "Cn1nc(-c2ccc(N3CCOCC3)c(NS(=O)(=O)c3ccc(Cl)cc3)c2)c2ccccc2c1=O", "Potency": "inconclusive [inhibitor, single point]"},
      {"smiles": "CCN1CCN(CCCN(Cc2ccco2)C(=S)Nc2ccc(Cl)cc2)CC1", "Potency": "inconclusive [inhibitor, single point]"},
      {"smiles": "CCn1nnc(NC(=O)c2ccc(-c3ccc(Cl)cc3)o2)n1", "Potency": "inconclusive [inhibitor, partial curve, poor fit]"},
      {"smiles": "Oc1ccc(Br)cc1-c1cc(-c2ccccc2Cl)[nH]n1", "Potency": "active: 7.94 µM"},
      {"smiles": "O=c1c2cc(NC(=S)NCCN3CCCCCC3)ccc2nc2n1CCCCC2", "Potency": "inconclusive [inhibitor, single point]"},
      {"smiles": "OCCN1CCN(CC/C=C2/c3ccccc3Sc3ccc(Cl)cc32)CC1", "Potency": "active: 11.2 µM"},
      {"smiles": "OCC1(Cc2ccc(Cl)cc2)CCN(CC2CC=CCC2)CC1", "note": "(configuration not stated)", "Potency": "inconclusive [inhibitor, partial curve]"},
      {"smiles": "Cc1cc(C)c(C)c(OCC(=O)O/N=C(\\N)c2ccccn2)c1", "Potency": "active: 10 µM"},
      {"smiles": "CCOC(=O)C1=C(C)NC(=O)NC1/C=C/c1ccccc1OC", "note": "(configuration not stated)", "Potency": "inconclusive [inhibitor, full curve, poor fit]"},
      {"smiles": "CNC(=O)CO/N=C/c1ccc(N(C)C)cc1", "Potency": "inactive"},
      {"smiles": "c1ccc(Cc2nnc3sc(C4COc5ccccc5O4)nn23)cc1", "note": "(configuration not stated)", "Potency": "inactive"},
      {"smiles": "CC(C)(C)OC(=O)N[C@@H](Cc1ccccc1)c1nnc(S(=O)(=O)Cc2cccc(F)c2)o1", "Potency": "inconclusive [inhibitor, single point]"}
    ]}
  ]
}
